Laboratory results taken from the RNAGym collection of RNA variant scans (doi:10.7554/elife.90254).
The source gives no read counts; variants with many changes may rest on few reads.

B1: LINE1-mini (parent)
chain: GGCAGAGCUCAACACAGCGUGGCAAAGUGGCUGUGGCUAGACUGCC

Variants of: B1
Assay: self-cleavage, relative activity (ratio to wild type); higher = more cleavage; in vitro, sequencing; the parent is a self-cleaving ribozyme

| Variant | self-cleavage |
| --- | --- |
| G2U C3U U9C A14C | 0.04 |
| G2U A14G C45G | 0.24 |
| G2U C3A C18A U20C A39C A41C | 0.03 |
| G2U A12G U20G G27U U28C G35U | 0 |
| G2C U34G G36U | 0.02 |
| G2C U20G G29A C42G | 0 |
| G2C G30C C31U A41U | 0.23 |
| G2U A25C G27U U43C | 0.01 |
| G2U C3A A12U C13G C31U | 0.08 |
| G2U A6G C10G U38A | 0 |
| G2C G30A C31U C42A | 0.7 |
| G2C U20G U28A C45U | 0.01 |
| G2C G36A G40C | 0.21 |
| G2U A26G C31U | 0.06 |
| G2U C3A G7A C23G A26C G40U | 0.1 |
| G2C U9C C18U | 0.07 |
| G2U C8A A24U G40A | 0.41 |
| G2U A6C C31G U32A G36A | 0.01 |
| G2U C8U G17C C18U A25C G27C | 0.01 |
| G2U A4U A26C | 0.03 |
| G2U A11G G35C | 0.04 |

| Variant | self-cleavage |
| --- | --- |
| G2U A11U G27C G40U | 0.01 |
| G2U A6U A12G C15A | 0.03 |
| G2U C3U U9C A12U G22U | 0.03 |
| G2U A6U C8U G19A G22C G27A C31G C42A | 0.01 |
| G2U A4C C31A A39U | 0.05 |
| G2C G35U A41G G44C | 0.06 |
| G2C G27U U38A C46U | 0.11 |
| G2C U34G G40C A41G | 0.02 |
| G2U C3G U9A U28A G40U | 0.27 |
| G2U A4C A26C C42U | 0.03 |
| G2U C8A A24U C31U C37A | 0.05 |
| G2C G36A U38C A41C | 0.01 |
| G2U A26U G36A C37U | 0.02 |
| G2C U9A A14G G33C C45G | 0.02 |
| G2U C3A G19C C31A U34C C45G | 0.03 |
| G2U A6G U32C U43C | 0.03 |
| G2U A26C G30C G36U A39G | 0 |
| G2C U9G G19U | 0.01 |
| G2U A6C C31G G36U C45G | 0.01 |
| G2U A25C G30A | 0.12 |
| G2U C3A A25G G29U | 1.71 |

| Variant | self-cleavage |
| --- | --- |
| G2U C3G G17C A24U U32G G40C | 0.11 |
| G2U C3U A26G | 1.27 |
| G2U A4C A11U U34A | 0.02 |
| G2U C8U A11C G17C A25C G29A G36C G40A | 0 |
| G2C U9G G33C | 0.02 |
| G2U A6U U9G G36C C42U | 0.02 |
| G2C U9A G22U C37U | 0.13 |
| G2C U28G C42U | 0.02 |
| G2U C8U A25C C31U C46G | 0.03 |
| G2U A12C C37A | 0.02 |
| G2C U28A G30U | 0.04 |
| G2U C3G C13A C37A | 0.02 |
| G2U A4G C8U G19C G22C U28C U32C U43G | 0.03 |
| G2U A11U G33U G35U U43A | 0.02 |
| G2U A11U C13A G21C G35A G40C | 0 |
| G2C G36C U38A C46U | 0.22 |
| G2U A4U G7A U43C | 0.08 |
| G2U A14G A39C | 0.02 |
| G2U A12C C31U | 0 |
| G2U C3U A4C C8U G17A | 0.28 |
| G2U A14C U34G | 0.05 |

| Variant | self-cleavage |
| --- | --- |
| G2U C3U C37A | 0.06 |
| G2U C3G G7U C18A A41G | 0.03 |
| G2U C3A C18A U38A | 0.34 |
| G2U C3A A4U C18G G19A A24G A26C | 0.12 |
| G2U A4G G7U | 0.1 |
| G2U A12G G17A G22C | 0.05 |
| G2C G30C C31U G36A C46G | 0.36 |
| G2C U9A C10U | 0 |
| G2U A16U G19U U20A G29U | 0.05 |
| G2U A25G G27A U28G U43A C46A | 0.01 |
| G2U A16C C23U | 0.03 |
| G2U A6C G40A | 0.01 |
| G2C G35C C37U A41G | 0.08 |
| G2U A41C C45G | 0.08 |
| G2U A11U G21C | 0.05 |
| G2U C3G G30U | 0.12 |
| G2U A12U U20A | 0.05 |
| G2U A6C G30A | 0.51 |
| G2U A12G C15G A16C | 0.08 |
| G2U C8A C13A C18U U32A | 0.04 |
| G2U A6U C13U A24C G30A U38A G40A | 0.01 |
